{"source": "the supplement of paper PMC11417369", "note": "± gives the standard deviation of the averaged measurements. This is one part of the list.", "data": [{"test_system": "PfAP2-G AP2 domain (GST-tagged)", "assay": "gcPBM binding intensity (ln(normalized median fluorescence intensity)); higher = stronger DNA binding", "procedure,_shortened": "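Using an Agilent 4 × 180k array, primer-extended double-stranded 36-bp intergenic genomic probes and negative controls were exposed for 1 h to GST-fused P. falciparum DNA-binding domains expressed in E. coli. Binding was carried out in 1× PBS with 1% milk, 0.2 mg/ml BSA, 0.5% salmon testes DNA and 0.03% Triton X-100, and protein was detected with Alexa488 anti-GST antibody and a 488 nm scan. Binding intensity is the highest Masliner-normalised natural-log median intensity across replicate spots of either probe orientation.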", "values": [{"sequence": "AAATAAAAAAAAAAAAAAAATAACTTAAATGGGATA [TGCATGCA_negctrl_site595]", "gcPBM binding intensity (ln)": "9.555 ± 0.064"}, {"sequence": "AACTAAATGTTATTCGCACACGGAATTTATTTAATG [CACACA_site3664]", "gcPBM binding intensity (ln)": "10.2 ± 0.18"}, {"sequence": "TTTTTTTTTTCTTTTTTTCTCATGAAATTCTAAATG [CACACA_negctrl_site918]", "gcPBM binding intensity (ln)": "10.2 ± 0.42"}, {"sequence": "ATATATATATATATATATATATATATGATTATTACT [GTGCAC_negctrl_site109]", "gcPBM binding intensity (ln)": "9.78 ± 0.47"}, {"sequence": "TATTACATTATTCAAAAAAATTTATATGGTTATAGG [CACACA_negctrl_site1657]", "gcPBM binding intensity (ln)": 9.72}, {"sequence": "TGATAATAAGCATACACACACACACCCAAAAAAAAA [CACACA_site721]", "gcPBM binding intensity (ln)": "10.4 ± 0.39"}, {"sequence": "AATTATATTCAAAATGGTACACACAATATTTAATTG [XGTACX_site5521]", "gcPBM binding intensity (ln)": "11.2 ± 0.69"}, {"sequence": "TAGTAAAAGATATACACACACCAAAAAATATAATTA [CACACA_site7142]", "gcPBM binding intensity (ln)": "9.98 ± 0.042"}, {"sequence": "TATATATGGGTACTAATTCCTTTAATTTCTTTAATT [CACACA_negctrl_site949]", "gcPBM binding intensity (ln)": "11 ± 0.53"}, {"sequence": "TTTTGTATTTCTCACACACACATAAGTAAACAATAA [CACACA_site5105]", "gcPBM binding intensity (ln)": "10.3 ± 0.3"}, {"sequence": "AAAAAAAAATTAGGGGTGCCATTTGCTGCTGTGCTT [GTGCAC_site9913]", "gcPBM binding intensity (ln)": "9.97 ± 0.042"}, {"sequence": "TTCCCTTATTTTGTATGTACACAATTTATCATGTTG [XGTACX_site2896]", "gcPBM binding intensity (ln)": "11.5 ± 0.85"}, {"sequence": "ATATATATATATGCATGTACATATATTTGTTATATC [XGTACX_site3197]", "gcPBM binding intensity (ln)": "11 ± 0.57"}, {"sequence": "TCACACCTTTTTGGTTGTACTTAAATTTCTTTTTTT [XGTACX_site6438]", "gcPBM binding intensity (ln)": "11.2 ± 0.75"}, {"sequence": "AATAGATATATAAATACACACAAACATACCTATATA [CACACA_site7823]", "gcPBM binding intensity (ln)": "10.05 ± 0.014"}, {"sequence": "AAACAAAGGGAACATGTGCACTTACAAAAAAAAAGA", "gcPBM binding intensity (ln)": "10.5 ± 0.49"}, {"sequence": "TGTAATATGAAATGTGTACACACGCACCCACAAAAA [CACACA_site8948]", "gcPBM binding intensity (ln)": "11.6 ± 1"}, {"sequence": "TTCTCAAAGTTTACGTGTACATAAATTATATAAATG [XGTACX_site2622]", "gcPBM binding intensity (ln)": "11.5 ± 0.91"}, {"sequence": "ATTAGGCATATTTTCTGTACACAATAATAAAAAAAA [XGTACX_site3957]", "gcPBM binding intensity (ln)": "11.6 ± 0.91"}, {"sequence": "ATTTATTTTAATTTTTTTTTTTCTCTTTTGGATCTA [CACACA_negctrl_site1408]", "gcPBM binding intensity (ln)": "9.46 ± 0.099"}, {"sequence": "ATTAAATACATTAACACACACACAAATAAATACATA [CACACA_site5583]", "gcPBM binding intensity (ln)": "10.2 ± 0.25"}, {"sequence": "TTTTATTATTTGTCTTGTACTCATTGTAAGAGTATG [XGTACX_site1538]", "gcPBM binding intensity (ln)": "11.4 ± 0.91"}, {"sequence": "TTTCAAAAATTATTTTGTACATATAATTAATATACG [XGTACX_site512]", "gcPBM binding intensity (ln)": "10.9 ± 0.58"}, {"sequence": "GACAGATTATAGCATAGTACTCATACATACATACAT [XGTACX_site1252]", "gcPBM binding intensity (ln)": "11.1 ± 0.71"}, {"sequence": "TACATACATACATACACACACACATCTATATTTATA [CACACA_site6171]", "gcPBM binding intensity (ln)": "10.7 ± 0.43"}, {"sequence": "GTGTAATATTATATATATATATATAATATATATACA [CACACA_negctrl_site263]", "gcPBM binding intensity (ln)": "9.74 ± 0.099"}, {"sequence": "CACATATACAAAAAGAAATGTTTAGTTGAAAATTAA [CACACA_negctrl_site1407]", "gcPBM binding intensity (ln)": "9.79 ± 0.23"}, {"sequence": "AATTTCTTCCATTGTAGTACTCAATTTTTTTTTGTT [XGTACX_site5847]", "gcPBM binding intensity (ln)": "11.4 ± 0.83"}, {"sequence": "ATTTAAAAGTTGGTAGTGCATTAAAAATAACAAAAA [GTGCAC_site9835]", "gcPBM binding intensity (ln)": "10.6 ± 0.41"}, {"sequence": "AAAAAAAAAAAAATGGTGCAACTTTGTTAAAGGAAA [GTGCAC_site9950]", "gcPBM binding intensity (ln)": "10.2 ± 0.15"}, {"sequence": "GTAATAAATTAAATATGTACATATTAAAATTAAGGA [XGTACX_site2290]", "gcPBM binding intensity (ln)": "11.3 ± 0.67"}, {"sequence": "ATTGATACATCCAATACACACTACAGATAATGATGT [CACACA_site5098]", "gcPBM binding intensity (ln)": "10.2 ± 0.15"}, {"sequence": "GTATGATTAAATAAAGGTACACTTATATTTATTTAT [XGTACX_site6966]", "gcPBM binding intensity (ln)": "11.3 ± 0.88"}, {"sequence": "TATCACATTTATGAGAGTACATAATTAATTCATGAT [XGTACX_site7850]", "gcPBM binding intensity (ln)": "11.2 ± 0.83"}, {"sequence": "TGCTACATAATATGTACACACATATACATATTTATA [CACACA_site6545]", "gcPBM binding intensity (ln)": "11.3 ± 0.92"}, {"sequence": "GAATTAATTTTAAAACGTACATGGGTGTATTTACAC [XGTACX_site5939]", "gcPBM binding intensity (ln)": "11.3 ± 0.79"}, {"sequence": "CATAATACAAATGTGATACCTGAAAATGACTTATTA [CACACA_negctrl_site994]", "gcPBM binding intensity (ln)": "10.055 ± 0.007"}, {"sequence": "TTCTTTTTTGTAATAACACACACACTAACAGAAAAA [CACACA_site8646]", "gcPBM binding intensity (ln)": "10.5 ± 0.42"}, {"sequence": "ATATATATATATAATTGTACATGTGTGTATAATTTG [XGTACX_site2417]", "gcPBM binding intensity (ln)": "10.9 ± 0.55"}, {"sequence": "AATTATACATATATTTAACACACATTTTATAAAGTG [CACACA_site8362]", "gcPBM binding intensity (ln)": "10.29 ± 0.021"}, {"sequence": "GTCAATATTTAGATATGTACTAAGGAGTGCTATATA [XGTACX_site222]", "gcPBM binding intensity (ln)": "11 ± 0.44"}, {"sequence": "ATATTATGAAGGGATATTTTCAAAAATATTAGGAGA [CACACA_negctrl_site942]", "gcPBM binding intensity (ln)": "9.905 ± 0.021"}, {"sequence": "TAAATGAAAATAAATTAACACACAATTTTAATATTG [CACACA_site8360]", "gcPBM binding intensity (ln)": "9.7 ± 0.16"}, {"sequence": "TTTTATTTTATATAACAACAAAATGGAAATATATAT [GTGCAC_negctrl_site71]", "gcPBM binding intensity (ln)": "10.2 ± 0.37"}, {"sequence": "CAATTTTTATGTGTGTGTACTCATTTGTTTTATAAA [XGTACX_site406]", "gcPBM binding intensity (ln)": "11.5 ± 0.94"}, {"sequence": "AAAAAAAAAAAATGTGCACACGCGTACACCCAAAAA [CACACA_site8614]", "gcPBM binding intensity (ln)": "11.7 ± 0.77"}, {"sequence": "TTTCTTTTTGTTCGTGTACACACATGAAATTTATAA [CACACA_site8466]", "gcPBM binding intensity (ln)": "11.6 ± 0.86"}, {"sequence": "TTGGAATAATATAAATAAATAAATATATATATATAT [CACACA_negctrl_site900]", "gcPBM binding intensity (ln)": "9.72 ± 0.33"}, {"sequence": "ATACAACAGATATATACACACATATAACAATAATAA [CACACA_site7560]", "gcPBM binding intensity (ln)": "10 ± 0.13"}, {"sequence": "ATGAGAAAACATAAAAGTACAAAAAGAAAAAAAAAA [XGTACX_site6020]", "gcPBM binding intensity (ln)": "11.1 ± 0.72"}, {"sequence": "TTATTTGATTACTTGCGTACTTATTTCATATTTTTT [XGTACX_site6648]", "gcPBM binding intensity (ln)": "11.3 ± 0.79"}, {"sequence": "GGGATATTTTAAAGGGTGCATATTATTAAAATAATG", "gcPBM binding intensity (ln)": "10.6 ± 0.62"}, {"sequence": "ACATATAATATAAAGTGTACAAGAAAATAAAAATAA [XGTACX_site1273]", "gcPBM binding intensity (ln)": "11.3 ± 0.77"}, {"sequence": "TTTCCATATTTTTAAAGTACATATTTCCGTTTCCAC [XGTACX_site7832]", "gcPBM binding intensity (ln)": "11.2 ± 0.71"}, {"sequence": "TCATAGTATGGACACACACACACACCCATATATATA [CACACA_site5033]", "gcPBM binding intensity (ln)": "11.1 ± 0.78"}, {"sequence": "TTGGGTCAAACATAAACACACACAAAAAGAAAAAAT [CACACA_site8328]", "gcPBM binding intensity (ln)": "10.3 ± 0.32"}]}]}
